Consider 25 molecules from PubChem BioAssay AID2071 (Sanford-Burnham Center for Chemical Genomics, 2009).

The list shows a part of the results. These are further read-outs of the screen, such as a control signal, another cell line or another target. No call is given for them. Compounds called inactive in the main read-out are mostly missing here.

A word on the inhibition: it is the drop in the measured response relative to a control, in per cent.

A short description of this test: NALP1 inflammasome inhibitors in reconstituted yeast, colorimetric, S. cerevisiae, triplicate retest (AID 2071). As to conditions: S. cerevisiae NALP1/ASC/caspase-1 growth, X-gal OD620, 72 h, at 20 µM, stronger effect = higher value.
Turning to `O=[N+]([O-])c1ccc(OCC(O)CN2CCN(c3ccccc3F)CC2)cc1` (stereo not given), the inhibition is 54.9%.

As for `CCCCOc1ccc(C(=O)CCN2CCCCC2)cc1`, the inhibition worked out at 50%.

Consider `Cc1ccc(C(C[N+](=O)[O-])c2c(N)n(C)c(=O)n(C)c2=O)cc1` (stereo not given), for which the inhibition turned out to be 101%.

For the molecule `CCCOc1ccccc1NC(=O)/C=C/C(N)=O`, the inhibition turned out to be 111%.

As to `CCn1ncc(C(=O)Nc2cccc(Cl)c2)c1C`, the inhibition was determined as 57.9%.

Consider `Nc1ccc(C(=O)c2cccs2)cc1`, for which the inhibition stood at 53.9%.

As to `CCCCOc1ccc(CSC2=NCCN2)cc1[N+](=O)[O-]`, the inhibition came out at 50.5%.

Turning to `CCc1oc2ccccc2c1C(=O)CCN1CCCCC1`, the inhibition worked out at 105%.

As for `CCOc1cc(CNCc2ccncc2)cc(Br)c1OCc1ccc(F)cc1`, the inhibition worked out at 70.6%.

As to `c1ccc(-c2ccc(-c3cn4c(n3)CCC4)cc2)cc1`, the inhibition amounted to 50.8%.

With `O=[N+]([O-])c1ccc(O)c2ncccc12`, the inhibition came to 96.2%.

For `Cc1ccc(CSCCNC(=O)CSCc2ccc([N+](=O)[O-])cc2)cc1`, the inhibition came to 59.2%.

In the case of `CN(C)CCN(C(=O)/C=C/c1cccs1)c1nc2ccc(F)cc2s1`, the inhibition was determined as 70.3%.

Take `CN(Cc1ccccc1)C(=O)c1ccc([N+](=O)[O-])o1`: the inhibition is 75.7%.

For the molecule `CNC(=S)N/N=C/c1cc(Br)cc(Br)c1O`, the inhibition was 55.6%.

For `CCN(CC)C1CC(=O)N(c2cccc(C)c2)C1=O` (stereo not given), the inhibition turned out to be 111%.

As for `O=C(c1ccccc1)c1c2c(cc3sc4ccccc4[n+]13)-c1cccc3cccc-2c13`, the inhibition is 96.2%.

As to `CCCc1nn(C)c(C(=O)Nc2cccc(C)c2)c1Cl`, the inhibition was found to be 53.5%.

With `O=C(O)c1ccccc1SC1CC(=O)N(c2ccccc2)C1=O` (stereo not given), the inhibition amounted to 106%.

Turning to `OC(CSc1c(Cl)cccc1Cl)CN1CCN(c2ccccc2F)CC1` (stereo not given), the inhibition was 59.7%.

Regarding `CC(C)CN=Cc1c(O)c([N+](=O)[O-])cc2oc3c(c12)CCCC3`, the inhibition turned out to be 56.3%.

On to `CCN(CC)c1ccc(/C=C2/SC(=O)N(C(C)C)C2=O)o1`, for which the inhibition worked out at 65.9%.

As for `Cc1ccc2nc(N(CCCN(C)C)C(=O)CCc3ccccc3)sc2c1`, the inhibition was 94%.

For `CC1=NNC(=O)/C1=C\c1cn(-c2ccccc2)nc1-c1cccs1`, the inhibition was found to be 72.5%.

Regarding `CC(NC(=O)/C(C#N)=C/c1ccc([N+](=O)[O-])o1)c1ccccc1` (stereo not given), the inhibition was determined as 91.5%.
